From PubChem BioAssay AID463173 (ICCB-Longwood Screening Facility, Harvard Medical School, 2010)
About 1,700 (3.3%) of roughly 52,000 compounds were called active. No stated cut-off is given here; in the data, active means survival mostly below about 52% (no sharp cut-off); inactive means mostly above about 56%. The list shows a part of the results.

tested on: Wild type; assay: S. aureus survival, RN4220 and DeltatarO strains – OD600, teichoic acid synthesis inhibitors, primary screen (AID 463173); conditions: S. aureus RN4220 wild type/DeltatarO growth, OD600, 18 h, active compounds read low, screened at 18.75 µg/mL (by protocol)

Row | SMILES | survival
1 | CCc1ccc(OCC(=O)N(Cc2ccc(Cl)cc2)C2CCS(=O)(=O)C2)cc1 (stereo not drawn) | inactive: 88%
2 | O=C(CSc1nc2c([nH]c3ccccc32)c(=O)n1-c1ccc(F)cc1)N1CCCCC1 | inactive: 101%
3 | CCOC(=O)c1oc2c(c1C)-c1nn(Cc3ccc(Cl)cc3)cc1CC2 | active: 2%
4 | Cc1noc(C)c1S(=O)(=O)N1CCC(C(=O)N2CCN(c3ccccc3)CC2)CC1 | inactive: 128%
5 | CCC(C)NC(=O)Cn1c(=O)cc(-c2ccccc2)c2c(C)nn(C)c21 (stereo not drawn) | inactive: 84%
6 | Cn1c(NCCO)nc2c1c(=O)n(Cc1ccccc1Cl)c(=O)n2C | inactive: 73%
7 | COc1ccccc1NC(=O)Cn1nnc(C(=O)NCc2ccc3c(c2)OCO3)c1N | inactive: 129%
8 | CC(O)c1nc2ccc(Oc3ccc4nc(C(C)O)[nH]c4c3)cc2[nH]1 (stereo not drawn) | inactive: 102%
9 | CC(C)OC(=O)C1=C(N)OC2=C(C(=O)CCC2)C1c1ccccc1F (stereo not drawn) | inactive: 114%
10 | COc1cc2[nH]c(=O)n(CCCCCC(=O)N3CCN(c4cccc(C(F)(F)F)c4)CC3)c(=O)c2cc1OC | inactive: 87%
11 | COc1cccc(Oc2nc3c(c(=O)n(Cc4ccccc4F)c(=O)n3C)n2C)c1 | inactive: 75%
12 | COc1ccccc1C(=O)Nc1cc2c(cc1N1CCOCC1)n(C)c(=O)n2C | inactive: 134%
13 | CC(C)c1ccc(NC(=O)CN(C)S(=O)(=O)c2ccc3c(c2)c(=O)n(C)c(=O)n3C)cc1 | inactive: 87%
14 | CCn1c(=O)n(CC)c2cc(N3CCCCC3)c(NC(=O)Nc3ccccc3Cl)cc21 | inactive: 76%
15 | COc1cccc(N2CCN(C(=O)c3c(C)oc4ncnc(N5CCOCC5)c34)CC2)c1 | inactive: 72%
16 | Cc1c(C(=O)N(C)C)sc2c1c(=O)n(-c1ccc(Cl)c(Cl)c1)c(=O)n2CC(=O)Nc1cccc(C(F)(F)F)c1 | inactive: 64%
17 | Cc1cccc(NS(=O)(=O)c2ccc3oc(=O)c4ncn(C)c4c3c2)c1C | inactive: 120%
18 | C/C(=N\NC(=O)c1cc2ccccc2cc1O)c1ccc(N)cc1 | inactive: 88%
19 | CC(=O)Oc1c(O)ccc2c(C)cc(=O)oc12 | inactive: 101%
20 | O=S(=O)(c1ccc2c(c1)OCCO2)N1CCN(c2ncccn2)CC1 | inactive: 99%
21 | O=C1CSC(=Nc2cccc(C(=O)O)c2)N1 | inactive: 101%
22 | CCOC(=O)Cc1ccc(NC(=O)NCc2ccc3c(c2)CCN3C(=O)CC)cc1 | inactive: 83%

Row | SMILES | survival
23 | O=C(CCS(=O)(=O)c1cc(Br)cc2c1N(C(=O)C1CC1)CC2)Nc1ccc(Br)cc1F | inactive: 86%
24 | CCc1ccccc1N(C)C(=O)Cn1cnc2sc(C)c(S(=O)(=O)N3CCN(c4ncccn4)CC3)c2c1=O | inactive: 70%
25 | COc1ccc(NC(=O)Cn2c(=O)oc3cc(S(=O)(=O)N4CCC(C)CC4)ccc32)c(OC)c1 | inactive: 96%
26 | CCOc1ccccc1CNC(=O)CCn1ccc2cc(S(=O)(=O)N3CCC(C)CC3)ccc21 | inactive: 69%
27 | COC(=O)c1ccc(Cn2nnc3sc4c(c3c2=O)CCC(C)C4)cc1 (stereo not drawn) | inactive: 75%
28 | CCCS(=O)(=O)c1c(Nc2ccccc2C)sc(C(=O)c2ccccc2)c1N | inactive: 46%
29 | Cc1ccc(NS(=O)(=O)c2cc(Br)cc3c2N(C(=O)C2CC2)CC3)cc1C | inactive: 69%
30 | OCc1cc(CO)c(O)c(CCc2ccccc2)n1 | inactive: 92%
31 | CCn1c(CSc2nc(C)cc(C)n2)nnc1SCc1ccccc1 | inactive: 110%
32 | CCOc1ccc(CCNC(=O)c2cc3c(=O)[nH]c4ccc(C)cc4c3s2)cc1OCC | inactive: 65%
33 | COc1ccc(-c2nc(SCC(=O)NCCc3ccc(OC)c(OC)c3)n[nH]2)cc1 | inactive: 72%
34 | O=C(NC1CCCc2ccccc21)c1ccc2c(c1)sc1nc(-c3ccc(F)cc3)cn12 (stereo not drawn) | inactive: 79%
35 | O=C(CCCN1C(=O)C(c2ccccc2)Oc2cccnc21)Nc1ccc(Br)cc1F (stereo not drawn) | inactive: 83%
36 | COc1ccc2c(CNCCc3cccs3)c(C(=O)O)n(Cc3ccccc3)c2c1 | inactive: 90%
37 | CCc1ccc2c(c1)NC(c1cccs1)=NC(c1ccc(F)cc1)=N2 | inactive: 63%
38 | Cc1ccc(Cl)cc1NC(=O)C1CCC(CNS(=O)(=O)c2cccc3nsnc23)CC1 (stereo not drawn) | inactive: 87%
39 | CC(=O)N(Cc1cccnc1)c1nc2c(C)c(C)ccc2s1 | inactive: 71%
40 | CCCC(=O)NCc1nc2cccnc2n1Cc1ccc(F)cc1 | inactive: 98%
41 | Cc1cccc(Cn2nnc3c(=O)[nH]c(C4CCN(C(=O)c5ccccc5F)CC4)nc32)c1 | inactive: 83%
42 | Cc1cccc(NC(=O)CSc2nc(=O)n(CCN3CCOCC3)c3c2CCC3)c1C | inactive: 85%
43 | Cc1ccc(NC(=O)Cn2c(=O)n(Cc3ccc4c(c3)OCO4)c(=O)c3ccc(C(=O)NC4CCCCC4)cc32)cc1 | inactive: 80%
44 | CCOC(=O)c1ccc(NC(=O)Cc2coc3cc(C)cc(C)c23)cc1 | inactive: 95%

Row | SMILES | survival
45 | O=C(Nc1cc(-c2nc3ccccc3o2)ccc1Cl)c1cccc2c(Cl)cccc12 | inactive: 64%
46 | CCN(C(=O)CSc1nnc(C)n2c1cc1occc12)c1ccccc1 | inactive: 104%
47 | CCOc1ccc(NC(=O)c2cc3c(=O)n4cccc(C)c4nc3s2)cc1 | inactive: 76%
48 | CCOC(=O)c1c(-c2ccccc2)oc2ccc(NS(=O)(=O)c3ccccc3)cc12 | active: 7%
49 | COc1ccc(S(=O)(=O)NCc2cccn2Cc2cccc(C)c2)cc1OC | inactive: 84%
50 | CCCCc1nn2c(=O)cc(COC(=O)c3ccccc3NC(=O)C3CCCCC3)nc2s1 | inactive: 82%
51 | COc1ccc(CNC(=O)c2cnc(N3CCCC3)nc2C)cc1 | inactive: 68%
52 | O=C(CSc1cn(CC(=O)N2CCOCC2)c2ccccc12)Nc1ccccc1C(F)(F)F | inactive: 91%
53 | Cc1cc([N+](=O)[O-])ccc1NC(=O)CSc1nccn1C | inactive: 135%
54 | COc1cccc(NC(=O)N2C3CCC2CC(O)(c2cccnc2)C3)c1 (stereo not drawn) | inactive: 112%
55 | CCOC(=O)CSc1nc2c([nH]c3ccccc32)c(=O)n1-c1ccc(OCC)cc1 | inactive: 80%
56 | COc1ccc(-c2c(C)c3ccc(O)c(CN4CCN(C)CC4)c3oc2=O)cc1OC | inactive: 74%
57 | COc1ccc2c(c1)c1c(c(=O)n(-c3cccc(Cl)c3)c(=O)n1C)n2C | inactive: 70%
58 | Cc1ccccc1C(=O)Nc1nc2c(s1)CC(C(C)(C)C)CC2 (stereo not drawn) | inactive: 124%
59 | COc1ccc(S(=O)(=O)c2cn(CC(=O)Nc3ccccc3)c3ccc(Cl)cc3c2=O)cc1 | inactive: 70%
60 | Cc1cccc2sc(N(Cc3cccnc3)C(=O)C3CCCCC3)nc12 | inactive: 75%
61 | COc1ccc(CSc2nc3ccncc3n2Cc2nc(-c3ccc(OC)c(OC)c3)oc2C)cc1 | inactive: 85%
62 | Clc1cccc(-c2noc3ncnc(NC4CCCCC4)c23)c1 | inactive: 79%
63 | COc1ccc(Br)cc1CNC(=O)CCC(=O)N1CCSc2ccccc21 | inactive: 65%
64 | CN(C(=O)c1cccc(Nc2ccc(-c3ccc4c(c3)OCCO4)nn2)c1)C1CCCCC1 | inactive: 83%
65 | COc1ccccc1CNC(=O)Nc1ccc2c(c1)N(C)C(=O)c1ccccc1S2 | inactive: 93%
66 | O=C(CSc1nc2c([nH]c3ccccc32)c(=O)n1-c1ccc(F)cc1)N1CCCCCC1 | inactive: 65%

Row | SMILES | survival
67 | COc1cccc2cc(-c3nc(-c4cccs4)no3)c(=O)oc12 | inactive: 74%
68 | CN1C(=O)C2CCCCN2c2ccc(C(=O)NCc3ccccc3Br)cc21 (stereo not drawn) | inactive: 65%
69 | COc1cc(NC(=O)CCc2c(C)nc3c(c(C)nn3-c3ccccc3)c2C)cc(OC)c1OC | inactive: 74%
70 | CCSc1nnc(C2CCCN(CC(=O)Nc3nc(C)cs3)C2)n1C (stereo not drawn) | inactive: 118%
71 | O=C(Cn1cc(SCc2cccc(C(F)(F)F)c2)c2ccccc21)N1CCCCCC1 | inactive: 91%
72 | COc1cccc(-c2cc(C(=O)NCCc3ccc(C)cc3)[nH]n2)c1 | inactive: 126%
73 | CC(=O)c1c(C)n(-c2cccc(C)c2)c2ccc(OC(=O)COc3ccccc3)cc12 | inactive: 70%
74 | Cc1ccc(NS(=O)(=O)c2c(C(=O)N3CCCCCC3)c(C)n(C)c2C)cc1F | inactive: 92%
75 | CCOC(=O)c1c(C)c(C(=O)NCCc2ccc(OC)cc2)c(C)n1CC | inactive: 103%
76 | CCOc1ccc(CNC(=O)Cn2nc(C)c3sc4ccccc4c3c2=O)cc1 | inactive: 121%
77 | Clc1nc(Cl)nc(NCCC2=CCCCC2)n1 | inactive: 114%
78 | Cc1ccc(C(c2sc3nc(-c4ccco4)nn3c2O)N2CCCCC2)cc1 (stereo not drawn) | inactive: 66%
79 | CC(=O)c1ccc(NC(=O)CSc2nc(-c3ccccc3F)nc3c2c(=O)n(C)c(=O)n3C)cc1 | inactive: 83%
80 | C=Cc1ccc(Cn2c(=O)n(-c3ccccc3C)c(=O)c3c4c(sc32)CN(C(C)=O)CC4)cc1 | inactive: 65%
81 | CCc1nn(CC(=O)Nc2c(C)cc(C)cc2C)c(=O)c2cc3sccc3n12 | inactive: 133%
82 | Cc1ccc(N(C)S(=O)(=O)c2ccc3[nH]cc(C(=O)O)c(=O)c3c2)cc1C | inactive: 83%
83 | COc1ccc(C)cc1NC(=O)CN1C(=O)CCc2cc(S(=O)(=O)N3CCOCC3)ccc21 | inactive: 128%
84 | CCN(CC)N=Nc1ccc(S(=O)(=O)N=C(C)O)cc1 | inactive: 111%
85 | Cc1ccc(C(=O)Nc2ccc3c(c2)N(C)C(=O)c2ccccc2S3)cc1F | inactive: 72%
86 | CCN(Cc1ccccc1)C(=O)Nc1ccc2c(c1)N(C)C(=O)c1ccccc1S2 | inactive: 88%
87 | CCOC(=O)c1c(-c2ccc(C)cc2)csc1NC(=O)c1cc(=O)c2cc(C)c(C)cc2o1 | inactive: 92%
88 | O=C(NCc1cccs1)c1ccc(CSc2nc3ccncc3n2Cc2cccc(F)c2)cc1 | inactive: 77%
